Test results from publication PMC10668032.
The list shows a part of the results. At the low end of the ranking, values are background and their order means little.

These sequences were tested against SIX1-Q177R homeodomain (UniProt Q15475) (assay: universal protein binding microarray). Details: Universal all-10-mer PBM (8x60K, AMADID 030236), 300 nM GST-tagged protein, Alexa Fluor 488 anti-GST; buffer, salt, pH and temperature not stated; high values mean tight binding; most listed sequences are background and not binding sites; double strand, one strand shown.

Sequence	binding signal
AGACATCC	-0.25 E-score
ACAGCCTC	-0.181 E-score
GTATGCAA	0.0924 E-score
ACACCAAC	0.462 E-score
CACGTGGC	-0.0158 E-score
CGGCGATC	-0.00497 E-score
AACAGACT	-0.183 E-score
AGTTCCCA	-0.0998 E-score
AACTTCGT	-0.216 E-score
ATTATATC	-0.15 E-score
AGGTAGAT	-0.085 E-score
CAGCCGAC	0.196 E-score
ACACGGAT	0.392 E-score
ACGGCCTG	-0.0622 E-score
GTATCTGA	0.236 E-score
GCTATTCA	0.0754 E-score
ATAAAGGC	-0.207 E-score
CCCGTTGC	-0.0962 E-score
GCATTCCC	-0.0753 E-score
TAACGCAA	-0.0787 E-score
CGAGGGCA	0.0243 E-score
ACTCCTTA	0.00654 E-score

Sequence	binding signal
ACAGGACC	-0.255 E-score
CCGTGTGC	0.215 E-score
CCGAACTC	-0.149 E-score
AATATCAT	-0.0565 E-score
GAGTCGTA	0.091 E-score
TATGTTAA	-0.142 E-score
CAGTGTTC	0.355 E-score
GCCTACTA	-0.0109 E-score
CCCTTCGG	0.0473 E-score
GATGGCGC	-0.0114 E-score
ATCGCCAC	0.147 E-score
CAGTAACG	-0.203 E-score
CCGAACAA	-0.0185 E-score
AGGCGACT	-0.172 E-score
AGTCCAAT	-0.111 E-score
AGATCCGC	0.0216 E-score
GTGAGTAA	-0.0154 E-score
GATCTCGC	-0.0221 E-score
CCGGGTTC	0.22 E-score
ACTGACAC	0.478 E-score
CCTAGGTC	-0.0423 E-score
ATCTACTG	-0.0572 E-score

Sequence	binding signal
ACCTCAGG	0.00128 E-score
ATCGACCA	-0.229 E-score
ATATCTGA	-0.122 E-score
ACCCAGGT	0.182 E-score
CGATTCAG	-0.183 E-score
ATACGACG	-0.0903 E-score
AGGAATTA	-0.206 E-score
ACCGATGG	-0.071 E-score
TAGTACTA	-0.0412 E-score
AATCAAAA	-0.0451 E-score
AAGCTCGG	-0.2 E-score
GTGCTAGA	-0.0111 E-score
GATGTTCC	-0.132 E-score
CGCACTTC	-0.102 E-score
GGTACAAA	-0.0234 E-score
CTCTGATC	-0.0208 E-score
ATTATAAA	-0.221 E-score
GAGCCTCC	-0.217 E-score
ACTGCTAC	0.11 E-score
CCTCGAGA	-0.0793 E-score
CAGCATCG	-0.2 E-score
ATTAACCG	0.0049 E-score

Sequence	binding signal
CACTCCCG	0.182 E-score
CAAGTTCG	0.0407 E-score
CACGTAGA	0.0737 E-score
AGTGGGCG	-0.0215 E-score
GGGTCTAA	0.0979 E-score
TTTCAAAA	-0.272 E-score
AATTTGAC	-0.0374 E-score
ACAGTCTG	-0.225 E-score
GCCATACC	-0.0688 E-score
TGAATCAA	-0.0841 E-score
TACACCCA	0.471 E-score
CAATATAG	-0.0995 E-score
GCTACTCA	-0.0846 E-score
ATCGTGAG	-0.0302 E-score
ATATATCC	0.021 E-score
ATGAAAAG	-0.145 E-score
AAAATGTT	-0.166 E-score
CGATGCTA	-0.183 E-score
ACCATCCT	-0.0891 E-score
CGCCGCTA	-0.0424 E-score
